Laboratory results from the RNAGym collection of RNA variant scans (doi:10.7554/elife.90254).
Read counts are not given, so values of variants with three or more changes are uncertain.

B1: LINE1-mini (parent)
chain: GGCAGAGCUCAACACAGCGUGGCAAAGUGGCUGUGGCUAGACUGCC

Variants of: B1
Assay: self-cleavage, relative activity (ratio to wild type); higher = more cleavage; in vitro, sequencing; the parent is a self-cleaving ribozyme
GGGAGAGCUCAUCACAGCGCGGCAAAGUGGCCGAGGCUAGACUGCC showed a self-cleavage of 0.05.
GGGUGAGCUCAACACAGCGUGGCAAAGUGGCUCUGGCAAGACUGCC gave a self-cleavage of 0.11.
In the case of GGGCGAGCUCAACACAGCGUGGCAAAGUGGCUGUGGCAAAACUGCC, the self-cleavage is reported as 0.1.
GGGAGAGCUCAUCACAGCGUGGCACAGUGGCUGUGGCUAGACUGCC gave a self-cleavage of 0.07.
With GGGCGAGCUCAACACAGCGUGGCAAAGUGUCUGUGGCUUGACUGCC the self-cleavage was 0.28.
For GGGUGAGCUCAACACAGCGUGUCAAAGUGGCUGUGGCUAGCCUGCC, the self-cleavage was 0.05.
In the case of GGGAGAGCUCUAGACAGCGUGGCAAACUGGCGGUGGCUAGACUGCC, the self-cleavage is reported as 0.01.
For GGGAGAGCUCCACACAGCGUGGCAAAGUAGCUCUGGCUAGACUGCU, the self-cleavage was 0.01.
Work on GGGAGAGCUCAACCCAGCGUGGCACAGUGGCUGUGGCUAGACUGCC yielded a self-cleavage of 0.09.
GGGAGAGCUCUACACAGCGUGGCAAAGUGGCUGUGGCUAGACUGUU gave a self-cleavage of 0.01.
In the case of GGAAGAGCUCAACACAGCGUGGCAAAGUGGCCGUGGCUAGAGUGCC, the self-cleavage is reported as 0.11.
In the case of GGGGGUGCUCAACACAGGGUGGCAAAGUGGCUGUGGCUAGACUCCC, the self-cleavage is reported as 0.4.
With GGGUGAGCUCAACACAGCGUGGCAUAGUGGCUGUGGCUAGACUGCC the self-cleavage was 0.21.
In the case of GGGAGAGCUCACCACAGCGUGGCAAAGUGGCUGUGGCUAGACUGCG, the self-cleavage is reported as 0.16.
GGGAGAGCUCGACACAGGGUGGAAAAGUGGCUGUGGCUAGACUGCC showed a self-cleavage of 0.03.
GGAAGAGCUCAACACAGCGUGGCAAAGUGGCCGUGGCUAGACUGCA showed a self-cleavage of 0.08.
With GGGCGAAAUCAACACAGCGUGGCAAAGUGGCUGCGGCUAGACUGCC the self-cleavage was 0.35.
Variant GGGAGAGCUCGACACAGCGUGGCAAAGUGGCUGUGGCUAGACUGAC has a self-cleavage of 0.03.
With GGGCGAGCUCAACACAGCGUGGCAAAGUGGCUGUGGGUAGACUGCC the self-cleavage was 0.24.
GGGGGAGCUCAACACAGCGUGGCAAAGUGGCUGUGGCUAGAAUGCC gave a self-cleavage of 0.12.
Work on GGGAGGGCUCAAUACAGCGGGGCAACGUGGCUGUGGCUAGACUGCC yielded a self-cleavage of 0.07.
GGGAGAGCUCUAUUCAACGUGGCAACGUGGAUGUGGCUAGACUGCC gave a self-cleavage of 0.02.
GGGAGAGCUCUACUCAGCGUGGCAAAGUGGCUGUGUCUAGACUGGC showed a self-cleavage of 0.06.
With GGGCGAGCUCAACACAGCGUGGUAAAGUGUCUGUGGCUAGACUGAC the self-cleavage was 0.01.
GGGCUAGCUAAAGACAGCGUGCCAAAGUGGCUGUGGCUAGACUGCC gave a self-cleavage of 0.03.
GGGAGAGCUCAGCACAGCGAGGCAAAGUGGCUGUGUCUAGACUGCC gave a self-cleavage of 0.14.
For GGGAGCGCUCAACACAGCGUGGCAAAGUGGCUGUGGCUAUACUGCC, the self-cleavage was 0.1.
With GGGAGCGCUCAACACAGCGUGGCAAAGUGGCUGUGGCUACACUGCC the self-cleavage was 0.07.
Work on GGGAGAGCUCACCAGAGCGUGGUAAAGUGGAUGUGGCUAGACUGUC yielded a self-cleavage of 0.01.
GGGAGAGCUCGACACAGCGGGGCAAAGUGGCUGUGGCUAGACUUCC showed a self-cleavage of 0.07.
Work on GGGCGAGCUCAACACAGCGGGGACAAGUAGCUGUGGCUAGAUUUCC yielded a self-cleavage of 0.21.
In the case of GGGAGAGCUCAACCCAGCGUGGCAAAGUGGCUGUGGCUAUACGGCC, the self-cleavage is reported as 0.07.
GGGAGAGCUCCACACAACGUGGCAAAUGGGCUGUGGCUAGACUGCC gave a self-cleavage of 0.03.
In the case of GGAAGAGCUCAACACAGCGUGGCAAAGUGGCGGUGGCUAGACGGCC, the self-cleavage is reported as 0.48.
GGGAGAGCUCAGUAAAGCGUGGCAAAGUGGAUGUGGCUAGACUGCC gave a self-cleavage of 0.02.
GGGAGAGCUCAACCUAGUGUGGCAAAGUGGCUGUGGCUAGACUGCC showed a self-cleavage of 0.14.
GGGGGAGCUCAACACAGCGUGGCAAAGUGUCUGUUGCUAGACUGCC showed a self-cleavage of 0.06.
With GGGAGAGCUCAUCACAGCGUGGUAAAGUGGCUGUGACUAGACUGCC the self-cleavage was 0.09.
GGGAGAGCUCUAUACAGCGUGGCAAAGUCGCUGUGGCUAGACCGCC gave a self-cleavage of 0.
With GGGGGAGCUCAACACAGCUUGUUAAAGUGGCUGUGGCUAGACUGCC the self-cleavage was 0.11.
In the case of GGAAGAGCUCAACACAGCGUGGCAAAGUGGCUGUGGCGAGACUGCA, the self-cleavage is reported as 0.03.
GGGAGGGCUCAACAUAGCGUGGCAAUGUGGCUGUGACGAGACUGCC showed a self-cleavage of 0.23.
GGGGGAGCUCAACACAGAGUGUCAAAGUGGCUGUGGCUAGACUGCC showed a self-cleavage of 0.08.
In the case of GGAAGAGCUCAACACAGCGUGGCAAAGUGGCUGUGGCCAGCCUGCC, the self-cleavage is reported as 0.01.
GGGAGAGCUCGACACAGCGUGGCAAAUUGGCUUUCGCUGGACUGCC gave a self-cleavage of 0.02.
GGAAGAGCUCAACACAGCGUGGCAAAGCAGCUGUGGGUCGACUGCC gave a self-cleavage of 0.03.
With GGGAGAGCUCAACCCAGCGUGGCAAAGUGGCUGUGGCUACACUGCG the self-cleavage was 0.02.
In the case of GGGAGAGCUCGACACAGUGUGGCAAAGUGGCGGUGGCUUGAGUGCC, the self-cleavage is reported as 0.02.
In the case of GGAAGAGCUCAACACAGCGUGGCAAAGGGGCUGUGGAUAGACUGCC, the self-cleavage is reported as 0.19.
Work on GGGAGUGCUCAACACAGUGUGGCAAAGUGGCAUUGGCUAGACUGCC yielded a self-cleavage of 0.07.
With GGGAGAGCUCAACCCAGCGUGGCAAAGUGUCUGUGGCUAGACUGCC the self-cleavage was 0.12.
GGAAGAGCUCAACACAGCGUGGCAAAGUGGCUGAGGCUAGUCUGCC showed a self-cleavage of 0.2.
In the case of GGGAGGGCUCAACACAGCGUGGCAAAGUGACUGUGGAUAGACUGCC, the self-cleavage is reported as 0.02.
Work on GGGAGGGAUCAACACAGCGUGGCAAAGUGGCUUUGGUUAGACUGCU yielded a self-cleavage of 0.09.
With GGGUGAGCUCAACACAGCGUGGCAAAGUGGCUGUGGAUAGACUGCG the self-cleavage was 0.04.
For GGGAGAGCUCAGCACAGCGUGGAAAAGUGGCUGUGGCUAGAUUGCC, the self-cleavage was 0.22.
